Columns and labels:
Assay type in all cases: cell-based
[1] = tested on: Streptococcus pneumoniae (Chester, ATCC49619); assay: Broth microdilution MIC assay, Streptococcus pneumoniae; details: MIC class score, MIC100, broth microdilution
[2] = tested on: Human keratinocytes (HaCaT cells); assay: Human cytotoxicity assay in vitro (CellTiter-Glo), keratinocytes
[3] = tested on: Human hepatocytes (HepaRG cells); assay: Human cytotoxicity assay in vitro (CellTiter-Glo), hepatocytes; design: key: 4: inhibiting cell viability 50% or more at concentrations of 10 μM or less; 3: causing at least 80% inhibition of viability at 25 μM; showing toxicity at 25 μM, but causing less than 20% inhibition of viability; 1: not causing a loss of viability at concentrations between 25 and 50 μM; without signs of cell viability loss at concentrations of 50 μM or higher

Row | SMILES | Antibacterial activity Streptococcus pneumoniae [1] | cytotoxicity, cell line K (keratinocytes), class [2] | cytotoxicity, cell line H (hepatocytes), class [3]
1 | Cc1nc(-c2ccc(-c3ccc(Cl)cc3Cl)o2)[nH]c1-c1ccccc1 [compound 1] | 4 (MIC of 1 μg/ml or less for preventing streptococcal growth 100% (MIC100)) | 2 (causing >50% inhibition of cell viability at 25 μM) | 2
2 | Cc1[nH]c(-c2ccc(-c3ccccc3Cl)o2)nc1-c1ccccc1 [compound 3] | 4 (MIC of 1 μg/ml or less for preventing streptococcal growth 100% (MIC100)) | 1 (causing less than 50% inhibition of cell viability at 50 μM) | 3
3 | Cc1nc(-c2ccc(-c3ccccc3OC(F)(F)F)o2)[nH]c1-c1cccc(Cl)c1 [compound 21] | 4 (MIC of 1 μg/ml or less for preventing streptococcal growth 100% (MIC100)) | 2 (causing >50% inhibition of cell viability at 25 μM) | 3
4 | Cc1[nH]c(-c2ccc(-c3ccccc3OC(F)(F)F)o2)nc1-c1ccc(Cl)cc1 [compound 24] | 4 (MIC of 1 μg/ml or less for preventing streptococcal growth 100% (MIC100)) | 2 (causing >50% inhibition of cell viability at 25 μM) | 2
5 | C#Cc1ccc(-c2nc(-c3ccc(-c4ccccc4C(F)(F)F)o3)[nH]c2C)cc1 [compound 27] | 4 (MIC of 1 μg/ml or less for preventing streptococcal growth 100% (MIC100)) | 2 (causing >50% inhibition of cell viability at 25 μM) | 1 (not causing a loss of viability at concentrations between 25 and 50 μM)
6 | Cc1[nH]c(-c2ccc(-c3ccccc3OC(F)(F)F)o2)nc1Cc1ccc(Br)cc1 [compound 30, 4-(4-Bromo-benzyl)-5-methyl-2-[5-(2-trifluoromethoxy-phenyl)-furan-2-yl]-1H-imidazole] | 4 (MIC of 1 μg/ml or less for preventing streptococcal growth 100% (MIC100)) | 3 (causing more than 50% inhibition of cell viability at 10 μM) | 3
7 | COc1ccc(-c2ccc(-c3nc(C)c(-c4ccccc4)[nH]3)o2)c(C(F)(F)F)c1 [compound 31] | 4 (MIC of 1 μg/ml or less for preventing streptococcal growth 100% (MIC100)) | 0 (not causing loss of cell viability at concentrations of 50 μM or higher) | 3
8 | Cc1nc(-c2ccc(-c3cccc(OC(F)(F)F)c3)o2)[nH]c1-c1ccc(F)cc1 [compound 37] | 4 (MIC of 1 μg/ml or less for preventing streptococcal growth 100% (MIC100)) | 2 (causing >50% inhibition of cell viability at 25 μM) | 3
9 | Cc1[nH]c(-c2ccc(-c3ccc(Cl)c(C(F)(F)F)c3)o2)nc1-c1ccccc1 [compound 39] | 4 (MIC of 1 μg/ml or less for preventing streptococcal growth 100% (MIC100)) | 2 (causing >50% inhibition of cell viability at 25 μM) | 1 (not causing a loss of viability at concentrations between 25 and 50 μM)
10 | Cc1nc(-c2ccc(-c3ccc(C(F)(F)F)cc3)o2)[nH]c1-c1ccccc1 [compound 45] | 4 (MIC of 1 μg/ml or less for preventing streptococcal growth 100% (MIC100)) | 1 (causing less than 50% inhibition of cell viability at 50 μM) | 1 (not causing a loss of viability at concentrations between 25 and 50 μM)
11 | Cc1ccc(-c2ccc(-c3nc(-c4ccccc4)c(C)[nH]3)o2)cc1 [compound 52] | 4 (MIC of 1 μg/ml or less for preventing streptococcal growth 100% (MIC100)) | 2 (causing >50% inhibition of cell viability at 25 μM) | 3

From patent US10456379B2, “Imidazole-based antimicrobial agents” (priority 2014, dated 2019)
